From the supplement of paper PMC11417369 come the findings set out here.

Some of the results follow.

The experiment has as its system PfAP2-HC AP2 domain (GST-tagged). In words: gcPBM binding intensity (ln(normalized median fluorescence intensity)); higher = stronger DNA binding. Put shortly:
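The binding buffer was 1× PBS containing 1% milk, 0.2 mg/ml BSA, 0.5% salmon testes DNA and 0.03% Triton X-100. In it, GST-tagged P. falciparum DNA-binding domains expressed in E. coli were applied for 1 h to an Agilent 4 × 180k array of primer-extended double-stranded 36-bp intergenic genomic probes plus negative controls. Binding intensity, read with Alexa488 anti-GST antibody and a 488 nm scan, is the highest Masliner-normalised natural-log median intensity across replicate spots of either probe orientation.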
As for “TATGTATTATATATTTGTACTCATTCTAATTCCTTC [XGTACX_site7294]”, the “gcPBM binding intensity (ln)” value was 9.63.
On to “TATCTTTATATATAGTGTACACATTAAACAAATCTC [XGTACX_site7381]”, for which the “gcPBM binding intensity (ln)” value amounted to 9.58.
Under “TATTAATGATAAGAATATTTTATATGATACATGCAT [CACACA_negctrl_site923]” stands 9.66; under “TTTAGTTTTTATATAGCACACATATTGTGATTATGT [CACACA_site8316]”, 9.86; under “AATTTATAAAAGAAGAGGACACATATAAATATAAAT [XGTACX_site59]”, 9.73.
Under “ATTTAAAAAAAAACGGAATTTTTTTTTTTTTTAAAG [XGTACX_negctrl_site91]” stands 9.28; under “ACATATATGTATAATACACACACTAATATATAATTG [CACACA_site1966]”, 10.
Under “ATATTCATATATTTACGTACATACATTTATATATTT [XGTACX_site7644]” stands 10.
For the sequence “TATATTAATGTTCATAGTACGTATGATTAGGAAAAA [XGTACX_site616]”, the “gcPBM binding intensity (ln)” value stood at 9.6.
Consider “GGAAAGACAGTTCACAGTACCCAGGAAATCTGCGGA [XGTACX_site4933]”, for which the “gcPBM binding intensity (ln)” value was determined as 9.62.
As for “ACAAAATATATAGACACACAAACACAAATATGTTTT [CACACA_site3016]”, the “gcPBM binding intensity (ln)” value was determined as 9.95.
“TTAATATGAATTATTACATGCAACTAAATATATTTA [TGCATGCA_site490]”: the “gcPBM binding intensity (ln)” value came to 9.52.
Next, “TAATACAGATTAAAAGGTACACTTATTTGGTATTAT [XGTACX_site4966]”: 9.71; “TGTATATCACATGAGAGGTGGAGATGGGGATAAATA [CACACA_negctrl_site1148]”: 9.93.
Under “ATACAATTCTTACATTGTACTTTTTTTTTTTATCAC [XGTACX_site6327]” stands 9.69.
Under “TACAACCTTTAGACAAGTACAAGAATTATATGTGGC [XGTACX_site4581]” stands 9.72; under “ACTAAAAAAATAAACACACAGATTTATATAATATAT [CACACA_site4884]”, 9.83.
As to “TCTATACCTATTCTTACACACATATGTATAAATATA [CACACA_site6407]”, the “gcPBM binding intensity (ln)” value was 9.85.
Under “TTGACAACTCTTTTCATACACACAAAAAAAAAAAAA [CACACA_site2362]” stands 9.5.
Under “TATAAATATAAATACACACACATATATATTATATAT [CACACA_site4496]” stands 10.1.
As for “TATATATATATATGTTGTACATATTTAAATGTTTAT [XGTACX_site5437]”, the “gcPBM binding intensity (ln)” value is 9.55.
As to “ATATATATATATATGTGTACATAATAACTTTGCTTA [XGTACX_site1255]”, the “gcPBM binding intensity (ln)” value is 9.97.
Under “ACCTATTTCAAACACACACACACACTAGCAAACATA [CACACA_site4695]” stands 10.9; under “CTTATTTCCTTTTGTAGTACCTTATAATATATATAA [XGTACX_site8873]”, 9.64.
Under “TAATAATAGTACTCACATCAAAGTATTATTAAAAAT [TGCATGCA_negctrl_site496]” stands 9.61.
Next, “TTCTATTTGTAAAATTGTACAAAATAAATAACAAAA [XGTACX_site1007]”: 9.44.
Take “GCATTTCTACTAAAAATACACACGATGATACAACGA [CACACA_site1756]”: the “gcPBM binding intensity (ln)” value stood at 9.63.
Under “TTATATATTTTTTGCACACCAAAAAAGAGAATATTC [CACACA_site2730]” stands 9.63; under “GGGAAGTAGTAGTAATGTACTTATTTATTATGTGAC [XGTACX_site3985]”, 9.61; under “AATTAAATTATAAGCACACACATATATATATATATA [CACACA_site3351]”, 9.82.
Under “CCACGTATAATATGTACACACACATAAATACAAAAA [CACACA_site4660]” stands 10.5; under “TAAAAAATGTTATATACACACAGTATAAAAAAAAAT [CACACA_site7808]”, 9.93.
Next, “AATATTCACATTTGTTGTACATTCCTAGTTATATAA [XGTACX_site491]”: 9.74; “TAAATATATAATTGTAGTACTGTTTTATGTTCATAA [XGTACX_site1020]”: 9.53.
On to “AAAAAATTTCAAATAACACACACTAATATATATATG [CACACA_site1426]”, for which the “gcPBM binding intensity (ln)” value stood at 10.3.
Next, “TAAACAGATATATTTTGTACATATTGTATATTTTGT [XGTACX_site713]”: 9.69; “AAGGAAAATTTTTGGTGTACACAAAAAAATCCAAAA [XGTACX_site3596]”: 9.71.
Under “ACACATATGACAAATAGTACATAAATATATAAATAT [XGTACX_site7141]” stands 9.89; under “AAATTGTGTTCATCAGCACACACAACATCATGTAAT [CACACA_site8556]”, 10.3.
Turning to “TTAATATATTATATTTGTACATATATATATATACAA [XGTACX_site4798]”, the “gcPBM binding intensity (ln)” value is 9.48.
Next, “AATAAATCTTTTTGTTGTACTAAAAATATTATTAGC [XGTACX_site3335]”: 9.4; “CGAAAGAAAAAAAGCACACACAGTTTTGAGCAATGA [CACACA_site2109]”: 10.1.
With “ACAAAAAAGTAAAAAGTGCATGTAAAATATAAGTAT [GTGCAC_site9438]”, the “gcPBM binding intensity (ln)” value is 9.99.
As to “AGAAATTAATCGAGGTGTACGTACATCCAAATATAT [XGTACX_site7650]”, the “gcPBM binding intensity (ln)” value amounted to 9.73.
Under “CCATTATATCTAAGTACACACATTAATTTTTTTTTT [CACACA_site6115]” stands 9.83.
Under “TATATATAAATATTCAGTACATAGTGCTATTAAGTG [XGTACX_site1979]” stands 9.62; under “ATATATTTAACAAGATGTACAATTTTATAAAAAATA [XGTACX_site2351]”, 9.57.
Under “AATAGCAATTTGGGGTGTACACACACCTTATTTAAA [XGTACX_site2234]” stands 9.84; under “TGAAAAGGAAATTGTTGTACATATGTTTCTTCCTAA [XGTACX_site3932]”, 9.53; under “TTTTTATAAAAAAATAGTACTCGTCTAATCTTATGT [XGTACX_site8532]”, 9.47.
Consider “ATACATCAAGGACACACACACACACGCACACGCACA [CACACA_site6310]”, for which the “gcPBM binding intensity (ln)” value amounted to 10.7.
Next, “AAACTATTCACTATAATACATTAGAAGTGAATAAAA [TGCATGCA_negctrl_site498]”: 9.64.
Under “TTATGATGGTCTTTATAAGGGCACATTAAATTCGGC [TGCATGCA_negctrl_site166]” stands 9.35; under “GAGAAGACATTACACAGTACCCAGTAACTCTACGGA [XGTACX_site2000]”, 9.68.
Next, “GATTATTATGTCCATGCATGTTAATATATATTAATT [TGCATGCA_site837]”: 9.87; “AAATTGGGGCTTGTTACACACTTAGTGCGAGTTCTA [CACACA_site582]”: 9.75.
